# In the supplement of paper PMC7826260:
# This is one part of the list. The data describe in vitro nicking of single-stranded DNA by Rep domains for 1 h at 37 °C with 3 µM enzyme; only the middle of the 90-letter strands is printed. A value is the log2 ratio of uncut reads to the pool without enzyme; more negative means more cut, near 0 not cut, and no call is made. Reads are scaled to the total; where an enzyme cuts many sequences, the uncut ones exceed 0.
# System: T1, Rep nickase domain of porcine circovirus 2
# T1 sequence (protein, residues 2-116, tag omitted): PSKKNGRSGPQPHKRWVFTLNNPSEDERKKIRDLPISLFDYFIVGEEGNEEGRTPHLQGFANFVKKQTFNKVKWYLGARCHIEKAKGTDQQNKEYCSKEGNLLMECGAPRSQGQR
# Experiment: uncleaved DNA left, log2 of reads against the no-enzyme library (log2 ratio); higher = less cleavage (more negative = more Rep cleavage of the k-mer); sequences stand for … in CTCGTCCG…ACCGGAGA
# Protocol: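 A pool of 90-nt single-stranded DNAs with seven random bases just before the constant AC of the nick site (name = the seven bases) was cut by 3 µM recombinant His6-SUMO-tagged Rep nickase domain (300 nM DNA, 50 mM HEPES pH 8.0, 50 mM NaCl, 1 mM MnCl2, 1 h, 37 °C, three replicates). Uncut DNA was amplified and sequenced.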
row,Sequence,uncleaved DNA left (log2)
1,TCATCTG,0.0112
2,ACCGTCG,0.113
3,CCTGAAC,0.0284
4,CATGAGA,0.255
5,GGTAATT,-0.066
6,GACTGGT,-2.53
7,ATACCTA,-0.399
8,CACATAA,0.121
9,ACCCGGT,-0.0953
10,ATCCAAC,0.0474
11,GCAAACT,-0.03
12,TGGATCC,0.185
13,CGGCAGG,0.2
14,AGGTGAG,0.0671
15,CGGCAAA,-0.0746
16,TGGCGAG,0.0131
17,GTTGCCG,0.0645
18,CCTCCCA,-0.466
19,TACCTCC,-0.461
20,TGTGACG,0.0112

row,Sequence,uncleaved DNA left (log2)
1,TGGACTC,0.0566
2,GATCCCA,-0.135
3,GACTATG,-0.0928
4,ACCCTTG,0.0621
5,GGGGTAC,0.212
6,CTCATAT,-0.158
7,ATCAATT,-0.425
8,ATCGATT,-0.119
9,TCTCAAG,0.231
10,TGCTCAC,0.00199
11,GGACATT,0.138
12,AGGCATT,0.239
13,CGCGGTA,-0.0115
14,AGGCTCG,0.0922
15,AGAAAAT,-0.197
16,GCAGCTA,0.0164
17,GCCATCT,-0.1
18,AGAGATC,0.102
19,CACACAC,0.0745
20,TGTCCAT,-0.049
